Test results reported in PubChem BioAssay AID1508624 (National Center for Advancing Translational Sciences (NCATS), 2021).
In all, about 48,000 compounds went through this assay and about 120 (0.25%) were called active. About 4% were inconclusive and are not listed. The call rests on the fitted dose curve; in most records, active means well fitted activation curve with a large enough effect; inconclusive means small, poorly fitted or top-dose-only effect, or another doubt; inactive means no such curve, though single readings can be large or run the other way. This is one part of the list.

Assay: Primary qHTS for Identification of Small Molecule Activators of Huntingtin-Antisense Promoter Activity; further: nearly all actives have a fitted effect of over 55% in size
Settings: HEK293 HTT-AS promoter firefly luciferase reporter (activity 0% = vehicle and -100% = no light), 24 h; series mostly up to 57.5 µM; activity change, positive = activation: at the top concentration
Outline: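 HEK293 cells carrying firefly luciferase reporters were seeded at 2,500 per well in Opti-MEM and cultured for 24 h. They were then treated with compounds at up to 57.5 uM final for 24 h at 37 degrees C before Dual-Glo luminescence readout.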

Activity change, positive = activation, inactive:
CC(=O)N1CCCc2cc(S(=O)(=O)NCc3cccc(C)c3)ccc21 -18.4%, CCCN(CCC)C(=O)Cn1nnc2sc(-c3ccccc3)cc2c1=O 2.87%, Clc1ccc2c(c1)-c1c(cnc3cc(-c4ccccc4)nn13)CO2 3.12%, COc1ccc(N2CCN(C(=O)c3cnn(-c4ccc(F)cc4)c3-n3cccc3)CC2)cc1 -10.3%, CCC1CCCCN1CCCNC(=O)CN1C(=O)c2cccnc2Oc2ccc(C)cc21 (stereo unspecified) -2.12%, O=C(Nc1ccc(Br)cc1F)C1CCN(c2nc3ccccc3[nH]2)CC1 -23%, O=C1CCCc2cc(S(=O)(=O)N3CCCC(C(=O)Nc4ccc(F)c(Cl)c4)C3)ccc2N1 (stereo unspecified) -40.1%, CCOc1cc2[nH]c(=O)n(CCCCC(=O)N3CCN(c4ccc(OC)cc4)CC3)c(=O)c2cc1OCC -11.5%, CCOc1ccc(C(=O)Nc2nnc(S(=O)(=O)Nc3ccccc3)s2)cc1 0.523%, CSc1cccc(Nc2cc(C(=O)NCCc3ccc(Cl)cc3)c3ccccc3n2)c1 -38.9%, CC1CN(C(=O)N2CCC(C(=O)N3CCN(c4ccccc4)CC3)CC2)c2cc(Cl)ccc2O1 (stereo unspecified) -21.2%, CCOc1ccc2nc(N3CCC(C(=O)Nc4ccccc4CC)CC3)sc2c1 3.99%, Cc1cc(N2CCCCC2)nc2ccc(NC(=O)/C=C/c3ccc(OC(C)C)cc3)cc12 -16.4%, CCCN1CCN(C(=O)Cn2c(-c3cccs3)cc3ccccc32)CC1 -13.4%, COCCCNC(=O)C1CCN(C(=O)c2cnn(-c3ccccc3)c2-n2cccc2)CC1 -3.95%, Cc1ccc(NC(=O)c2cnc(N3CCCCC3)c3ccccc23)c(C)c1 -3.17%, CCCCOc1ccc(C2=NC(c3cccs3)=Nc3ccc(CC)cc3N2)cc1 17.3%, CC(C)CC(=O)Nc1nc2nc(-c3ccccc3)cc(=O)n2[nH]1 -8.54%, COC(=O)c1c(Oc2ccc(OC)cc2)nnc(-c2ccccc2)c1-c1ccccc1 -35.2%, Cc1ccc(N2C(=O)NC(NS(=O)(=O)c3ccccc3)(C(F)(F)F)C2=O)cc1C (stereo unspecified) -11.1%, CCOC(=O)c1ccc(O)c(O)c1 11%, COc1ccc(CNC(=O)CCCn2nc(C)c3sc4ccccc4c3c2=O)cc1OC -9.2%, CCOc1ccccc1CNC(=O)c1ccc(N2Cc3ccccc3Oc3ncccc32)s1 -18.6%, Cc1cccc(NC(=O)N2CCN(C(=O)c3nsc4ccccc34)CC2)c1C -22.5%, Cc1ccc2c(CC(=O)Nc3ccc(S(=O)(=O)N4CCCCC4C)cc3)coc2c1 (stereo unspecified) 0%, Cn1cc(-c2[nH]c3cc(NC(=O)[C@H](N)C4CCCCC4)cc4c3c2C=NNC4=O)cn1 -33.4%, Cc1ccc(CNC(=O)c2cccn2-c2nnc(N3CCCC3)s2)cc1 -0.503%, COc1cccc(NC(=O)CN2C(=O)CSc3ccc(S(=O)(=O)N4CCCC4)cc32)c1 -21.7%, COc1ccc(CCNC(=O)CSc2cn(CCNC(=O)c3cccc(C(F)(F)F)c3)c3ccccc23)cc1OC -42.8%, CCC1CN(C(=O)Nc2cccc3c2CCCC3)c2cc(Cl)ccc2O1 (stereo unspecified) -31.2%, O=C(Cn1ncc2ccsc2c1=O)N1CCN(c2ccc(F)cc2)CC1 -12.2%, Cc1ccc(-n2ncc3c(N4CCC(C(N)=O)CC4)ncnc32)cc1 -83.1%, Cc1ccc(S(=O)(=O)N2CCc3cc(C(=O)Nc4ccc(C(F)(F)F)cc4)ccc32)cc1 -4.34%, Cc1oc(-c2ccccc2Cl)nc1CS(=O)CC(=O)NCc1ccc(Cl)cc1 (stereo unspecified) -8.64%, Cc1cc(C(F)F)n2nc(C(=O)Nc3ccc(C(C)C)cc3)nc2n1 14.8%, Cc1ccc(COc2ccc(-c3cc(C(F)(F)F)n4nc(C)cc4n3)cc2)cc1 -7.46%, Fc1ccc(-c2ccc(CNCCSc3nnnn3-c3ccccc3)o2)cc1 -4.57%, O=S(=O)(Nc1nc2ccccc2nc1Nc1ccccc1Br)c1ccccc1 -13.3%, COc1ccc(CNS(=O)(=O)c2cc3c4c(c2)CCN4C(=O)CC3)cc1 -21.3%, O=C(CSc1nc2c([nH]c3ccccc32)c(=O)n1-c1cccc(Cl)c1)NCC1CCCO1 (stereo unspecified) -22.8%, COc1cccc(CNC(=O)C(C)n2ncn3cccc3c2=O)c1OC (stereo unspecified) -8.04%, O=C(Cn1c2ncccc2c(=O)n1-c1ccccc1)NCc1ccccc1Cl -14.7%, CCOc1ccc(-c2cn(-c3ccc(C)cc3)c(SCC(=O)Nc3ccc(C)cc3)n2)cc1 -19%, Cc1ccc(NC(=O)Cc2coc3ccc(C(C)C)cc23)c(C)c1 -20.3%, CC(=O)Nc1ccc(S(=O)(=O)N2CCC(c3nnc(-c4ccc(C)cc4)o3)CC2)cc1 -36.5%, CC(C)C(=O)N1c2nc(-c3ccco3)nn2C2(CCCCC2)[C@@H]2CCCC[C@@H]21 -23.1%, Cc1oc2c(cc(NS(=O)(=O)c3ccc(C(C)C)cc3)c3ccccc32)c1C(=O)O -28.3%, CC1(C)CNc2cc(NC(=O)c3cccnc3NCc3ccncc3)ccc21 2.16%, Cc1ccc(CCNc2ncnc3onc(-c4ccc(F)cc4)c23)cc1 -7.38%, O=c1[nH]nc(OCCCc2ccc(Cl)cc2)c(NCc2cccnc2)c1Br -30.9%, COc1cccc(CNC(=O)Cn2c(=O)n3nc(-c4cccc(F)c4)nc3c3ccccc32)c1 -0.817%, CCN(CC)C(=O)c1sc2c(c1C)c(=O)n(-c1ccc(Cl)c(Cl)c1)c(=O)n2Cc1cc(=O)n2ccccc2n1 -33.2%, COc1ccc(NC(=O)CCn2c(=O)c3cccn3c3cccnc32)cc1Cl -10.7%, O=C(Cn1c(=O)n(CCCS(=O)(=O)C2CCCCC2)c(=O)c2ccccc21)Nc1ccccc1C(F)(F)F -4.69%, Cc1ccc(S(=O)(=O)c2[nH]c(-c3ccccc3)nc2SCC(N)=O)cc1 -9.42%, COC(=O)c1sc2ncccc2c1-n1c(C)ccc1C 10.7%, COc1ccccc1CNS(=O)(=O)c1ccc2c(c1)CC(=O)N2C -9.9%, CCOC(=O)N1CCN(C(=O)c2c(C)nn(-c3cccc(C)c3)c2-n2cccc2)CC1 -22.3%, Cc1ccc(C)c(N2CCN(C(=O)CCS(=O)(=O)c3cc4c(cc3Cl)NC(=O)CO4)CC2)c1 -46.1%, O=C(NCc1ccc2c(c1)CCN2C(=O)c1ccccc1)c1ccccc1 11%, CCOc1ccccc1NC(=O)C(CC)Sc1nc2ncccc2[nH]1 (stereo unspecified) -10.8%, Cc1ccc2oc3c(c(=O)c2c1)C(c1ccccc1F)N(CCCN(C)C)C3=O (stereo unspecified) 14.9%, COc1ccc(CNC(=O)C2=C(C)C(=O)OC23CCCCC3)cc1 -3.29%, COc1ccc(-n2ncc3c2ncn2nc(COc4ccc(Cl)cc4)nc32)cc1 -11.8%, Cc1ccc(NC(=O)c2ccc3oc(=O)c(S(=O)(=O)c4ccccc4)cc3c2)cc1C -23.8%, Cc1ccc(NC(=O)Cn2nnc(-c3nc(-c4ccncc4)no3)c2N)c(C)c1 -6.01%, CC(NC(=O)C1CCN(C(=O)c2ccc(-n3ccc4ccccc43)s2)CC1)c1ccccc1 (stereo unspecified) -0.988%, COc1ccccc1NC(=O)C1=C(C)Nc2nc(SCc3ccc(Cl)cc3)nn2C1c1ccccc1Cl (stereo unspecified) -15.8%, CCOC(=O)C1CCN(C(=O)CN2c3ccc(C(C)C)cc3-c3ccccc3S2(=O)=O)CC1 12.1%, CCOc1ccc(OC(=O)c2cn(-c3cccc(OC)c3)c(=O)c3ccccc23)cc1 -14.8%, CC1CCN(C(=O)c2cc3c(=O)n(C)c4ccccc4c3s2)CC1 15.3%, CCOC(=O)c1c(NC(C)=O)c2c3c(sc2n1Cc1ccc(Cl)cc1)CCCC3 6.8%, COc1cc(C2NC(=O)N(C)C3=C2C(=O)N(c2cccc(Cl)c2)C3)ccc1O (stereo unspecified) -9.58%, COc1cccc(-n2c(SCC(=O)Nc3cccc(Cl)c3)nc3c(oc4ccccc43)c2=O)c1 -13%, Cc1c(NC(=O)CC(C)C)cccc1-c1nc2cccnc2s1 -10.8%, COc1ccccc1OC(=O)Oc1ccccc1OC 0.058%, COc1ccc(/C=C\C(=O)NC2CC(=O)N(c3ccc(F)cc3)C2)cc1OC (stereo unspecified) -7.1%, CS(=O)(=O)c1oc(-c2ccc(F)cc2)nc1S(=O)(=O)c1ccc(Cl)cc1 -39.9%, O=C(CSc1nc2c(sc3ccccc32)c(=O)n1CCCC(=O)NC1CCCC1)Nc1ccc(F)cc1 -5.22%, CCOc1ccccc1CNC(=O)c1ccc(-c2nc(CSc3ccc(C)cc3)c(C)o2)cc1 -22.7%, COc1ccc(-n2c(=O)c3c(C)c(C)sc3n(CC(=O)NCc3ccc(C)cc3)c2=O)c(OC)c1 -11.4%, O=C(NCc1ccc(F)cc1)C1CCCN(c2ncnc3onc(-c4ccc(F)cc4)c23)C1 (stereo unspecified) -22%, Cc1ccc(Nc2c(-c3ccsc3)nc3cccc(C)n23)cc1 -3.47%, CCOC(=O)CNC(=O)c1ccc(-c2nn(C)c(=O)c3ccccc23)cc1 8.74%, COc1ccc(Cl)cc1NC(=O)CSC1=Nc2ccccc2C2=NC(CC(=O)NC3CCCCC3)C(=O)N12 (stereo unspecified) -29.6%, CCc1ccc(NCc2cc3ccc(OC)cc3n(CC(=O)Nc3ccc(C(C)C)cc3)c2=O)cc1 -15.2%, COc1ccc2cc(-c3nc(Cl)c4c5c(sc4n3)CCCC5)c(=O)oc2c1 -7.1%, COc1cccc(CNc2nccn(-c3cc(C)cc(C)c3)c2=O)c1 -25.2%, CN(C)c1ccc(-c2nc3cnccn3c2Nc2cccc(C(F)(F)F)c2)cc1 -10.4%, COc1ccc(NC(=O)Cn2c(=O)n(Cc3ccco3)c(=O)c3cc(OC)c(OC)cc32)cc1 -12.7%, CCCCN(CCCNC(=O)c1ccc(Sc2ccc(Cl)cc2)c(NC(C)=O)c1)c1ccccc1 -24.4%, Cc1ccc(NC(=O)CSC2=Nc3ccccc3C3=NC(Cc4ccccc4)C(=O)N23)cc1C (stereo unspecified) -24.6%, Cc1cc2c(cc1S(=O)(=O)CCC(=O)N1CCCC(C)C1)OCC(=O)N2 (stereo unspecified) -6.26%, Cc1ccc(-n2ncc(C(=O)NCCN3CCOCC3)c2C2CCN(C(=O)OC(C)(C)C)CC2)c(C)c1 2.16%, COCCn1c(CCC(=O)Nc2ccc(C)c(Cl)c2)nc2cccnc21 -3.34%, Clc1ccc2nc(NCc3ccccc3)c3nncn3c2c1 -3.33%
